# Test results reported in the supplement of paper PMC4604168 (melanoma cell lines).
# The other results are listed elsewhere or left out. Most values come without repeats; read them as rough.
# How the values were obtained:
# Test in all cases: cell count relative to DMSO control; melanoma cells; higher = more viable cells
# Conditions in all cases: library dose: standard library concentration; 72 h
# [1] = test system: G361
# [2] = test system: IPC-298
# [3] = test system: IST-MEL1
# [4] = test system: LB2518-MEL
# [5] = test system: LOXIMVI
# [6] = test system: MEL-HO
# [7] = test system: MZ2-MEL
# [8] = test system: MeWo
# [9] = test system: RPMI7951
# [10] = test system: RVH-421
# 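Note: cells treated in 1,536-well plates, then fixed and DAPI-stained, with nuclei counted from automated high-throughput microscope images.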
Structure (SMILES),cell count [1],cell count [2],cell count [3],cell count [4],cell count [5],cell count [6],cell count [7],cell count [8],cell count [9],cell count [10]
"N.N.[Cl][Pt][Cl] [cisplatin] + C=CCNC1=C2C[C@@H](C)C[C@H](OC)[C@H](O)[C@@H](C)/C=C(\C)[C@H](OC(N)=O)[C@@H](OC)/C=C\C=C(/C)C(=O)NC(=CC1=O)C2=O [Tanespimycin] (first compound 8 µM, partner dose 0.01 µM)",72.3%,97.2%,62.7%,82.5%,71.9%,88.7%,98.6%,63.6%,20.4%,205%
"C[C@]12O[C@H](C[C@]1(O)CO)n1c3ccccc3c3c4c(c5c6ccccc6n2c5c31)CNC4=O [Lestaurtinib] + O=C(O)c1ccc2c(c1)nc(Nc1cccc(Cl)c1)c1ccncc12 [CX4945] (first compound 0.02 µM, partner dose 2 µM)",57.1%,63.6%,93%,78.7%,100%,61.5%,77.4%,66.5%,88.8%,79.5%
"Cn1cc(C2=C(c3cn(C4CCN(Cc5ccccn5)CC4)c4ccccc34)C(=O)NC2=O)c2ccccc21 [Enzastaurin] + Cn1c(Nc2ccc(C(F)(F)F)cc2)nc2cc(Oc3ccnc(-c4ncc(C(F)(F)F)[nH]4)c3)ccc21 [CHIR265] (first compound 4 µM, partner dose 0.4 µM)",40.2%,52.4%,82.5%,39.1%,80.3%,76.1%,68.6%,73.1%,41.2%,40.6%
"C[C@]12O[C@H](C[C@]1(O)CO)n1c3ccccc3c3c4c(c5c6ccccc6n2c5c31)CNC4=O [Lestaurtinib] + Oc1nc(-c2ccc(C(F)(F)F)cc2)nc2c1CSCC2 [XAV939] (first compound 0.02 µM, partner dose 10 µM)",75.8%,83.2%,94.5%,85.2%,93.1%,78%,132%,73.1%,65.8%,83.3%
"C[C@]12O[C@H](C[C@]1(O)CO)n1c3ccccc3c3c4c(c5c6ccccc6n2c5c31)CNC4=O [Lestaurtinib] + Cc1nc(Nc2ncc(C(=O)Nc3c(C)cccc3Cl)s2)cc(N2CCN(CCO)CC2)n1 [dasatanib] (first compound 0.02 µM, partner dose 0.02 µM)",64%,84.9%,71.5%,–,25%,62.6%,–,78%,26.3%,69.8%
"C[C@]12O[C@H](C[C@]1(O)CO)n1c3ccccc3c3c4c(c5c6ccccc6n2c5c31)CNC4=O [Lestaurtinib] + OCCn1cc(-c2cnc3nnn(Cc4ccc5ncccc5c4)c3n2)cn1 [PF04217903] (first compound 0.02 µM, partner dose 5 µM)",84.4%,91.3%,105%,–,98.5%,88.2%,–,82.3%,98.1%,79.3%
"N.N.[Cl][Pt][Cl] [cisplatin] + O=C(Oc1ccc([N+](=O)[O-])cc1)N1CCC(C(O)(c2ccc3c(c2)OCO3)c2ccc3c(c2)OCO3)CC1 [JZL184] (first compound 8 µM, partner dose 5 µM)",96%,110%,92%,–,88.2%,90.9%,–,92.4%,90.1%,59.2%
"Cn1cc(C2=C(c3cn(C4CCN(Cc5ccccn5)CC4)c4ccccc34)C(=O)NC2=O)c2ccccc21 [Enzastaurin] + CC(=O)O[C@@]12CO[C@@H]1C[C@H](O)[C@@]1(C)C(=O)[C@H](O)C3=C(C)[C@@H](OC(=O)[C@H](O)[C@@H](NC(=O)OC(C)(C)C)c4ccccc4)C[C@@](O)([C@@H](OC(=O)c4ccccc4)[C@H]21)C3(C)C [Docetaxel] (first compound 4 µM, partner dose 0.0005 µM)",12.1%,41.6%,32.5%,–,48.1%,35.2%,–,26.5%,9.72%,29.1%
"Cn1cc(C2=C(c3cn(C4CCN(Cc5ccccn5)CC4)c4ccccc34)C(=O)NC2=O)c2ccccc21 [Enzastaurin] + N.N.[Cl][Pt][Cl] [cisplatin] (first compound 4 µM, partner dose 8 µM)",110%,107%,97.3%,–,80.5%,95.9%,–,115%,121%,83.4%
"N.N.[Cl][Pt][Cl] [cisplatin] + CCN(CC)CCCCNc1ncc2cc(-c3cc(OC)cc(OC)c3)c(NC(=O)NC(C)(C)C)nc2n1 [PD173074] (first compound 8 µM, partner dose 0.5 µM)",82.1%,104%,116%,–,77.4%,94.4%,–,79.1%,67.7%,105%
"C[C@]12O[C@H](C[C@]1(O)CO)n1c3ccccc3c3c4c(c5c6ccccc6n2c5c31)CNC4=O [Lestaurtinib] + CCCCCCCCc1ccc(CCC(N)(CO)CO)cc1 [fingolimod] (first compound 0.02 µM, partner dose 10 µM)",0.895%,32.6%,12.6%,0.182%,21.9%,2.95%,0.776%,16.6%,1.48%,27.2%
"C[As](C)SC[C@H](NC(=O)CC[C@H](N)C(=O)O)C(=O)NCC(=O)O [Darinaparsin] + Cn1cc(/C=C2\C(=O)Nc3cccnc32)c2ccccc21 [GW441756] (first compound 2 µM, partner dose 2 µM)",90.8%,89%,88.8%,–,91.7%,90.6%,–,67.5%,81%,78%
"Cn1cc(C2=C(c3cn(C4CCN(Cc5ccccn5)CC4)c4ccccc34)C(=O)NC2=O)c2ccccc21 [Enzastaurin] + CC(C)(C)c1cnc(CSc2cnc(NC(=O)C3CCNCC3)s2)o1 [SNS-032] (first compound 4 µM, partner dose 0.05 µM)",54.1%,96.7%,68.5%,–,64.1%,86.4%,–,70.2%,19%,39.1%
"C[C@]12O[C@H](C[C@]1(O)CO)n1c3ccccc3c3c4c(c5c6ccccc6n2c5c31)CNC4=O [Lestaurtinib] + Cn1c(Nc2ccc(C(F)(F)F)cc2)nc2cc(Oc3ccnc(-c4ncc(C(F)(F)F)[nH]4)c3)ccc21 [CHIR265] (first compound 0.02 µM, partner dose 0.4 µM)",31.4%,46%,103%,–,110%,73.7%,–,70.7%,67.5%,52.8%
"N.N.[Cl][Pt][Cl] [cisplatin] + O=C(O)c1ccc(-c2c[nH]c3ncc(-c4ccccc4)cc23)cc1C1CCCC1 [GSK650394] (first compound 8 µM, partner dose 0.8 µM)",98.9%,105%,83%,–,81.4%,86.7%,–,107%,96.2%,119%
"C[C@]12O[C@H](C[C@]1(O)CO)n1c3ccccc3c3c4c(c5c6ccccc6n2c5c31)CNC4=O [Lestaurtinib] + Cn1nnc2c(C(N)=O)ncn2c1=O [temozolomide] (first compound 0.02 µM, partner dose 10 µM)",91.8%,69%,95.7%,–,59.9%,91.3%,–,73.9%,93.8%,97.2%
"N.N.[Cl][Pt][Cl] [cisplatin] + C[C@@H]1CCN(C(=O)CC#N)C[C@@H]1N(C)c1ncnc2[nH]ccc12 [CP690550] (first compound 8 µM, partner dose 5 µM)",93.8%,111%,92.5%,104%,80.4%,93.1%,111%,104%,98.4%,84.2%
"C[As](C)SC[C@H](NC(=O)CC[C@H](N)C(=O)O)C(=O)NCC(=O)O [Darinaparsin] + COc1ccc(-c2ccc3c(N4CCOCC4)nc(N4C[C@@H](C)O[C@@H](C)C4)nc3n2)cc1CO [KU0063794] (first compound 2 µM, partner dose 0.1 µM)",77.8%,68.1%,85%,–,75.7%,82.7%,–,70.3%,96.5%,66.8%
